# Source: the supplement of paper PMC3334620
# In all, about 33,000 sequences were measured (“E-score (-0.5 to 0.5)”: median about -0.04, highest 2% from about 0.36 on). Some of the results follow.
# Target: T1, Hmlalpha2 (UniProt P0CY09)
# T1 sequence: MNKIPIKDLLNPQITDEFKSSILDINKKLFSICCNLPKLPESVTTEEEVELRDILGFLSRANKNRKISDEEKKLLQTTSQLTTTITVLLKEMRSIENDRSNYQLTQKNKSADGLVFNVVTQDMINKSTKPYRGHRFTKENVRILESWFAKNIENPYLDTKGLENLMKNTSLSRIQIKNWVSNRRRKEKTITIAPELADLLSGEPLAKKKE
# Experiment: PBM E-score (8-mer binding enrichment) (E-score (-0.5 to 0.5)); higher = stronger / more preferred TF binding; most listed sequences are background and not binding sites
# Conditions: protein concentration: 200 nM; construct: GST-full length
# How it was run: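 Yeast transcription factors carrying a GST tag, as full-length proteins or DNA-binding domains, were produced by PURExpress in vitro transcription/translation. About 100-200 nM protein was applied to universal all-10-mer Agilent arrays, double-stranded by primer extension on fresh or once-stripped slides. Bound protein was detected with fluorescent anti-GST, and scans were normalised with masliner. The Universal PBM Analysis Suite gave each ungapped eight-base word, pooled with its reverse complement, an E-score, a modified Wilcoxon-Mann-Whitney statistic.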
row,Sequence,PBM E-score
1,GACGCTGC,-0.0607
2,CGTGAGGA,-0.199
3,GGACCGCA,-0.158
4,ACTCAACA,0.342
5,AGACGCAG,-0.0258
6,CTTACCGC,-0.0699
7,CTACCAAC,0.205
8,CACAGCCG,-0.041
9,CTCAGAAC,0.0524
10,CCGTTAAA,0.125
11,AGTCCTTA,-0.129
12,AACATCGA,0.248
13,ATCACAAA,0.0688
14,GCCAGGGA,-0.249
15,CGGTTCAA,-0.133
16,GGGGTAAC,-0.0416
17,AGCGTGGA,-0.239
18,ATTGCTAG,-0.0101
19,ACAGGCTC,0.0674
20,GGAGCTCA,-0.0831
21,CATCCGAG,-0.207
22,CGTGTTAA,0.481
23,GGCACACA,0.147
24,GCTTTCAA,0.141
25,CGTGCCAC,-0.0851

row,Sequence,PBM E-score
1,CGACAGAA,-0.181
2,GAGTCTAA,-0.0698
3,CGGCTACG,0.0372
4,ACAAAGGG,-0.0246
5,AGAGAACG,0.0554
6,ATGTTTAA,0.387
7,AGAAGTCA,0.0742
8,CTCCTGCA,-0.0645
9,AGGCGCGC,-0.169
10,ATACTGTC,0.0244
11,AAGGGTTA,-0.0714
12,ATTTTGCG,-0.0329
13,CCGTCGAG,0.0641
14,GCGCCCCC,-0.267
15,AAATAATT,0.206
16,AATATTCC,-0.00713
17,ACCACCGT,-0.0982
18,AATGAACC,-0.117
19,ACGGGGGG,-0.22
20,AGCCTCAC,-0.307
21,CGGCGCAC,-0.173
22,CCGAATGA,-0.0941
23,AGTAAAAA,0.196
24,GCTCTGTA,0.0723
25,AGTAGGGA,-0.0827

row,Sequence,PBM E-score
1,ATCTCCTC,-0.169
2,CTACGCTC,-0.00715
3,CGTTTGAA,0.0215
4,CGTACGAG,-0.122
5,GCGTGAAC,0.079
6,AAGGTGGC,-0.1
7,CTATGAAG,-0.149
8,ATGCGCAT,0.357
9,AATAGTAC,0.0869
10,CGATGAGC,-0.23
11,ATCGGGCG,-0.204
12,CAACAAAG,0.236
13,CCGCAATA,0.0856
14,ACCCGGCA,-0.214
15,GACGCCGC,-0.121
16,ACAGTACG,0.101
17,GATACGAA,0.134
18,ATACGTTC,0.038
19,CAAATCGA,0.112
20,GGTGCTTA,-0.0864
21,ACTCTATC,-0.0301
22,AATAAGGT,-0.0514
23,ATGATAAG,0.218
24,ACAAGCGT,0.235
25,ATCTAGGA,-0.11

row,Sequence,PBM E-score
1,CGGCTCCA,-0.265
2,ACCAATTC,-0.0945
3,CAAACAGA,-0.1
4,ATTCCGCC,-0.176
5,CATGTTGC,0.334
6,CCAGTGCG,-0.241
7,ATCTTTAG,-0.0388
8,CCGATGAC,-0.0935
9,AGTCGCGC,-0.155
10,TATACGCA,0.345
11,CCACTCGG,-0.126
12,ACAGCGAT,-0.0205
13,CGATGACC,-0.101
14,CGTCCTGC,-0.174
15,CTGATGCA,-0.0433
16,ATGAATCC,-0.0534
17,GCATTCCA,-0.11
18,ATGGTGAA,-0.0612
19,AAAACTAA,0.286
20,CGCGAAAC,-0.00375
21,AGCGCAGA,-0.145
22,CGTACGTA,0.15
23,CGCATCCC,-0.195
24,CTCATATA,-0.0227
25,GTTAAGTA,0.318

row,Sequence,PBM E-score
1,AATATCGA,0.0197
2,CGCCGGTA,-0.236
3,ACGGGCCT,-0.204
4,CAGCCGAA,-0.0986
5,CACGGGAG,-0.105
6,GATCCGGC,-0.293
7,AAACTATT,0.0334
8,CAATAGGA,-0.00166
9,CGAACCCG,-0.299
10,ACAAACGC,0.16
11,ACGCCGAA,-0.199
12,CATCAATA,0.115
13,ACCGATAT,-0.0792
14,CGAAACCA,0.0905
15,AACATTAC,0.332
16,AACAACAC,0.375
17,CCATTCGG,0.0669
18,AAGAGACT,-0.103
19,AGATATCT,0.0526
20,CTCGGTAA,-0.0493
21,TAGTAATA,0.259
22,AGATGGGC,-0.319
23,ACTAGGGA,-0.14
24,ACTACCAT,-0.00403
25,AAGCTTAT,0.101

row,Sequence,PBM E-score
1,CACGAATA,0.195
2,CAAAGTAC,0.221
3,AATTAAAC,0.259
4,AGGCTTAG,8e-05
5,GCAAGGAA,-0.16
6,ACCCGTAT,-0.0485
7,GCGTCTAC,0.0343
8,AGATTCTA,0.0504
9,ATACTACG,0.161
10,CAGCCATC,-0.189
11,AGCGGGCG,-0.142
12,CAGGTCGG,-0.211
13,GCAGGAGA,-0.111
14,ACCACTTA,0.0802
15,CTATCCGC,-0.121
16,CTTATTGA,-0.0347
17,GACCCAGC,-0.199
18,TCGCTGAA,0.00606
19,AACGTGCG,0.152
20,ATAAGTGG,-0.0805
21,CGCACCAC,-0.103
22,CTACTTCA,-0.152
23,GCGGACTA,0.0231
24,CGAATTAG,-0.0132
25,CACCTTCG,-0.206

row,Sequence,PBM E-score
1,GGGTATAC,-0.0009
2,ATGTAGGC,0.169
3,ATACATTG,0.289
4,AGGCAACA,-0.136
5,TCGCACAA,-0.0123
6,GGGCGGTA,-0.208
7,AGGCGGAA,0.0848
8,AAACCAAC,0.141
9,ATTATAGG,-0.0361
10,AATTACAC,0.467
11,ATCGTATA,0.0738
12,CAAGTGCA,0.104
13,CAATAAGG,-0.22
14,AAACCTAT,0.071
15,TAATCAAA,0.087
16,GCAATTAC,0.167
17,ATGGCGGC,-0.199
18,ACTGACCA,-0.214
19,CCTCTACG,-0.00282
20,GCAGATCA,0.0679
21,ACCAGGAT,-0.0987
22,CCTCCGGC,-0.257
